Experimental findings from article PMC6906297 are described below.

Results are given in words; binding and its absence hold for the method and conditions named. In cells and extracts the contact can be indirect. Some binding calls cover weakened binding; strength is not graded here. Sequences can lack the tags named with a protein.

The target in test [1] is T1, Retinoic acid-inducible gene I (RIG-I), tagged, transfected (UniProt O95786).
T1 sequence: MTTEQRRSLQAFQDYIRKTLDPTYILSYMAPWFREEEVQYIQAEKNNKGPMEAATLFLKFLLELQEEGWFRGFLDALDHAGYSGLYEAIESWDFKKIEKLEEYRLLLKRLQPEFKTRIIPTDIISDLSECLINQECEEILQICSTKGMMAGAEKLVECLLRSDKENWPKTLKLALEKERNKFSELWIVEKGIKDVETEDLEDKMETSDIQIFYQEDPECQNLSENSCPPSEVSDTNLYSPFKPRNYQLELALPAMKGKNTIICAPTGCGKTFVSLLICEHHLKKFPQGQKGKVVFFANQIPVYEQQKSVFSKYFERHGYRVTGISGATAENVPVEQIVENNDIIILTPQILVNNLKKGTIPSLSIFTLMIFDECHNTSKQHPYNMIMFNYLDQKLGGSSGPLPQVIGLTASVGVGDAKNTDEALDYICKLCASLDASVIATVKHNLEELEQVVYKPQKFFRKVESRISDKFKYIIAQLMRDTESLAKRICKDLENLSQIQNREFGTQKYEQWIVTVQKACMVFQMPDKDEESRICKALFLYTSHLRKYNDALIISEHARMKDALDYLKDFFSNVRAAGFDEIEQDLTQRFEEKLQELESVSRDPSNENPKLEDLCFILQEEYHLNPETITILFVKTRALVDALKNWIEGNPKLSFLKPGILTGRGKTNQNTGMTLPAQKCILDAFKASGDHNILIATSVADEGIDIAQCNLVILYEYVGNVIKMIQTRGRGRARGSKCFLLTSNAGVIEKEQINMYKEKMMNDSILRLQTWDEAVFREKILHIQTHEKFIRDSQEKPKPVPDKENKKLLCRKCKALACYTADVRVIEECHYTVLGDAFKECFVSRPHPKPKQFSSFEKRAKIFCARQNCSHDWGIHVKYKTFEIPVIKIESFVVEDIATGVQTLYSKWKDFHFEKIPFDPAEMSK
Nature of the test: co-IP; HEK293T cells (2 x 10^6) transfected with the indicated plasmids for 24 h; lysate with monoclonal antibody or control mouse IgG and protein G agarose, 4 °C, 2 h; washed with lysis buffer containing 0.5 M NaCl; western blot.

Test [2] deals with T2, RNF125, tagged, transfected (UniProt Q96EQ8).
T2 sequence: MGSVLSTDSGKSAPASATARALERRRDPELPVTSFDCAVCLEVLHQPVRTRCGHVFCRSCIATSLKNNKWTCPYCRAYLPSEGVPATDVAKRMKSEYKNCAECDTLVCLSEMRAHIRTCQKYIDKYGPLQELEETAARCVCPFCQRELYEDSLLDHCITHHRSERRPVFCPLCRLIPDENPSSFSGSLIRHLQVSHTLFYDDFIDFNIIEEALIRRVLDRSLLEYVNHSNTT
The description is as above.

B1: RNF125, tagged, transfected (enzyme, UniProt Q96EQ8 1-232)
chain: T2 sequence
Regarding B1, the binding result in test [1] and in test [2] was “binds” in each case.
